Experimental data from PubChem BioAssay AID588591 (National Center for Advancing Translational Sciences (NCATS), 2011).
In all, about 390,000 compounds went through this assay and about 4,700 (1.2%) were called active. Inconclusive means that the source gave no clear call. Such entries were picked first, then a sample of the others. Calls come from the whole dose curve; as a rule, active = well fitted inhibition curve with a large enough effect; inconclusive = small, poorly fitted or top-dose-only effect, or another doubt; inactive = no such curve, though single readings can be large or run the other way. Where the call is inconclusive, the potency comes from a doubtful curve fit.

Target: DNA polymerase eta (Homo sapiens) (UniProt Q9Y253)
Test: qHTS for Inhibitors of Polymerase Eta
Details: recombinant Pol eta, fluorescent DNA replication assay; series mostly up to 114 µM
How it was run: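 Pol eta (10 nM) was preincubated with compounds for 15 min at room temperature, after which fluorescent replication substrate (50 nM final) was added to start the reaction. Fluorescence was read kinetically at 0 and 10 min.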
Potency is the fitted concentration of half-maximal effect; tags give direction and shape of the fitted curve.

UniProt Q9Y253, sequence (Q9Y253 whole entry, looked up): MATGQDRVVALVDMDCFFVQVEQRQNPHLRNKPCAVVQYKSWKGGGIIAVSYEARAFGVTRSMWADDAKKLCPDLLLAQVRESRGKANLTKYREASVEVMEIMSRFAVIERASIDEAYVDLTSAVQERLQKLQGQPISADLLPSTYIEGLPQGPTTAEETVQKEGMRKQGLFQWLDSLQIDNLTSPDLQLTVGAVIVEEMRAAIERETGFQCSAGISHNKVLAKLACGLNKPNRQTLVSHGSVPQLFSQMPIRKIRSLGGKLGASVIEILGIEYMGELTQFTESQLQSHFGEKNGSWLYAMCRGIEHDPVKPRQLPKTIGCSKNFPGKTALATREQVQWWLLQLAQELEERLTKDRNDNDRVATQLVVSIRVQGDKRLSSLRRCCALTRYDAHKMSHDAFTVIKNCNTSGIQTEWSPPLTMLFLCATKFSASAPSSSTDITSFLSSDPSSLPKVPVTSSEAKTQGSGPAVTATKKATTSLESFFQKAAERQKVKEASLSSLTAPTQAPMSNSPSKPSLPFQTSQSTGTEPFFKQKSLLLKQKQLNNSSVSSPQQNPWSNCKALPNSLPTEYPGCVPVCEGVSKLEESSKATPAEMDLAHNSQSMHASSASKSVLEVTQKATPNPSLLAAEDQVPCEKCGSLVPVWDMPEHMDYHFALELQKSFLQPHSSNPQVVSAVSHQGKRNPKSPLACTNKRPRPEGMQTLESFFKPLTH

SMILES	Potency
CC(=O)Oc1cc(O)c2c(=O)c(OC(C)=O)c(-c3ccc(OC(C)=O)c(OC(C)=O)c3)oc2c1	active: 2.82 µM
COc1ccc(NC(=O)/C(Cl)=C(/Cl)S(=O)Cc2ccc(Cl)cc2)cn1 (stereo unspecified)	inconclusive: 79.4 µM [inhibitor, partial curve, poor fit]
CCc1ccc(NC(=O)Cn2c(=O)ccc3cc(S(=O)(=O)N4CCCC4)ccc32)cc1	active: 89.1 µM
CC(C)NC(C(=O)Nc1cc(Cl)cc(Cl)c1)c1ccccc1 (stereo unspecified)	inconclusive: 39.8 µM [inhibitor, partial curve, poor fit]
O=S(=O)(c1ccc(Cl)cc1)N1CCN(CCc2ccccc2)CC1	inactive
O=C(N/N=C/c1ccc(Cl)c([N+](=O)[O-])c1)c1cc(-c2ccc3c4c(cccc24)CC3)n[nH]1	inconclusive: 56.2 µM [inhibitor, partial curve, poor fit]
Cc1ccc(CCNC(=O)c2ccc(CSCc3ccc(C)cc3)o2)cc1	inactive
O=C(CSc1nc2c(oc3ccccc32)c(=O)[nH]1)Nc1cccc(Cl)c1	inactive
COc1ccc(C(=O)Nc2cc(-c3nc4ncccc4o3)ccc2C)cc1Br	inconclusive: 89.1 µM [inhibitor, partial curve, poor fit]
Cc1ccnn1CCC(=O)N1CCCC(CCC(=O)N2CCN(c3ccccn3)CC2)C1 (stereo unspecified)	inactive
CCN(CC)c1ccc2cc(-c3nnc(-c4ccccc4)o3)c(=O)oc2c1	inconclusive: 12.6 µM [inhibitor, partial curve, poor fit]
CC(=O)NCC1CCN(C(=O)C2CCC(=O)N(CCc3cccc(F)c3)C2)CC1 (stereo unspecified)	inactive
CCc1ccc(-n2nc(C)c3c(C(=O)Nc4ccc(Cl)cc4)cc(C)nc32)cc1	inactive
Cc1ccc(S(=O)(=O)NCc2ccccc2)cc1C(=O)NCC1CCCO1 (stereo unspecified)	inconclusive: 39.8 µM [inhibitor, partial curve, poor fit]
Cc1c(C(=O)N(Cc2ccco2)Cc2cccs2)oc2ccccc12	inconclusive: 14.1 µM [inhibitor, full curve, poor fit]
O=C(NCCN1C(=O)S/C(=C\c2ccc(Cl)c(Cl)c2)C1=O)c1cnccn1	inconclusive: 17.8 µM [inhibitor, partial curve, poor fit]
O=C(O)/C=C\C(=O)Nc1ccc(N2CCN(c3ccc(Cl)cc3)CC2)cc1	inactive
CCN1CC2=C(OC(N)=C(C#N)C2c2cccs2)/C(=C/c2cccs2)C1 (stereo unspecified)	inconclusive: 22.4 µM [inhibitor, full curve, poor fit]
COC(=O)c1c(NC(=O)c2ccoc2C)sc2c1CCC2	inconclusive: 20 µM [inhibitor, full curve, poor fit]
Cn1nnc(NC(=O)c2ccc(C(C)(C)C)cc2)n1	inactive
CC(=O)Nc1nc(C)c(Oc2ccc(Cl)cc2Cl)c(=O)[nH]1	inconclusive: 31.6 µM [inhibitor, partial curve, poor fit]
Cc1ccc(-c2cc(C(=O)O)c3cc(Br)ccc3n2)o1	active: 20 µM
COc1cc(CC(=O)OCC(=O)c2ccc[nH]2)cc(OC)c1OC	inconclusive: 8.91 µM [inhibitor, partial curve, poor fit]
CCOC(=O)C1CCN(c2nc3c(S(=O)(=O)c4ccc(CC)cc4)nnn3c3ccc(Cl)cc23)CC1	inactive

SMILES	Potency
CC(/C=N/n1c(-c2ccc(C)cc2)n[nH]c1=S)=C\c1ccco1	inconclusive: 28.2 µM [inhibitor, partial curve]
CC(Oc1ccc(Br)cc1)C(=O)Nc1ccc(S(=O)(=O)N(C)C2CCN(C)CC2)cc1 (stereo unspecified)	inconclusive: 39.8 µM [inhibitor, partial curve, poor fit]
Cc1nnc(SCC(=O)Nc2sc3c(c2C(N)=O)CCC(C)C3)[nH]c1=O (stereo unspecified)	inactive
COc1ccc(NC(=O)C2(S(=O)(=O)c3ccc(C)cc3)CC2)c(OC)c1	inactive
COc1ccccc1Nc1nn2c(=O)c3ccc(C(=O)NC4CCC(C)CC4)cc3nc2s1 (stereo unspecified)	inactive
Nc1nc(N)c2cc(Sc3ccc(Cl)cc3)ccc2n1	inconclusive: 56.2 µM [inhibitor, partial curve, poor fit]
CCN(C(=O)CSc1nc(-c2ccccc2)no1)c1cccc(C)c1	inconclusive: 89.1 µM [inhibitor, single point]
COc1ccc(C)cc1Nc1nc(C)nc2c1oc1ccccc12	inconclusive: 31.6 µM [inhibitor, full curve]
COc1cccc(CNc2ncnc3c2nnn3C)c1	inactive
O=C1CCCC(=O)N1c1ccc(F)cc1	inactive
O=C1/C(=C\c2cccnc2)CN(Cc2ccccc2)C/C1=C\c1cccnc1	active: 50.1 µM
Cc1ccc(NC(=O)C(C)OC(=O)c2cc(=O)[nH]c3ccccc23)cc1S(=O)(=O)N1CCOCC1 (stereo unspecified)	active: 17.8 µM
Cn1nc2c(c1C(=O)O)CCCC2	active: 8.91 µM
COc1ccc(-c2ccc([C@H]3[C@H]4C=CC[C@@H](C)[C@@H]4C(=O)N3Cc3ccccc3)c(F)c2)cc1C	inconclusive: 89.1 µM [inhibitor, partial curve, poor fit]
Cc1ccc(C2=NN(S(=O)(=O)c3ccccc3)C(c3ccccc3O)C2)cc1 (stereo unspecified)	inconclusive: 79.4 µM [inhibitor, partial curve]
COc1ccc(NC(=O)Cn2c([N+](=O)[O-])cnc2C)c(OC)c1	inactive
CCC(Sc1nc2ccsc2c(=O)n1Cc1ccc(C(=O)O)cc1)C(=O)Nc1ccc(Cl)cc1 (stereo unspecified)	inconclusive: 35.5 µM [inhibitor, full curve, poor fit]
Cc1cc2ccccc2n1CCNC(=O)c1ccccc1F	inactive
O=C(O)Cc1ccc2c(c1)Cc1cccnc1O2	inactive
COc1cc(Cl)c(C)cc1NC(=O)c1ccccc1NC(=O)CN1CCOCC1	active: 79.4 µM
O=S(=O)(Nc1nccs1)c1cc(Cl)ccc1Cl	active: 25.1 µM
CN1CCN(CCCNC(=O)c2ccc(/C=C3\Oc4ccccc4N(Cc4ccc(Cl)cc4)C3=O)cc2)CC1	inconclusive: 31.6 µM [inhibitor, full curve]
Cc1ccc2[nH]c(=O)c(-c3nc4c(C)cccn4c3NCc3ccco3)cc2c1	inconclusive: 11.2 µM [inhibitor, partial curve, poor fit]
CCOCC(=O)Nc1ccc(-c2cn3c(C)csc3n2)cc1	inactive

SMILES	Potency
COc1ccccc1N1CCN(c2ccc(=O)n(CC(=O)O)n2)CC1	inconclusive: 100 µM [inhibitor, partial curve, poor fit]
CCOc1cc2[nH]c(=O)n(Cc3cccc(OC)c3)c(=O)c2cc1OCC	inconclusive: 3.98 µM [inhibitor, partial curve, poor fit]
O=C(CN1C(=O)C2CC=CCC2C1=O)Nc1ccc(F)cc1F (stereo unspecified)	inactive
Cc1ccc(OCC(=O)Nc2ccc(C(=O)Nc3ccccc3C(=O)O)cc2)cc1C	inconclusive: 35.5 µM [inhibitor, full curve]
CCC(=O)OCCNc1cc(Sc2nc3ccccc3[nH]2)c2nonc2c1[N+](=O)[O-]	inconclusive: 25.1 µM [inhibitor, single point]
Cc1ccc(NS(=O)(=O)c2cc(NC(=O)C(C)Oc3ccccc3)ccc2C)c(C)c1 (stereo unspecified)	inconclusive: 79.4 µM [inhibitor, partial curve, poor fit]
CC(=O)c1sc(NC(=O)C2CC(=O)N(Cc3ccco3)C2)nc1-c1ccccc1 (stereo unspecified)	inconclusive: 35.5 µM [inhibitor, single point]
N#CCCNc1c(Cl)cc(Cl)cc1C(=O)O	inconclusive: 15.8 µM [inhibitor, partial curve, poor fit]
N=c1c(S(=O)(=O)c2ccc(Cl)cc2)cc2c(=O)n3ccccc3nc2n1Cc1ccco1	inconclusive: 50.1 µM [inhibitor, partial curve, poor fit]
CCC1=NN2C(=N)/C(=C\c3ccc(SCc4ccco4)o3)C(=O)N=C2S1	active: 15.8 µM
O=C(CCCOc1ccccc1)Nc1cccc([N+](=O)[O-])c1	inactive
NS(=O)(=O)c1ccc(Cl)c(S(N)(=O)=O)c1	inactive
COC(=O)c1ccc2c(c1)C(=O)/C(=C/c1ccc(O)cc1)O2	inconclusive: 11.2 µM [inhibitor, partial curve]
O=C(c1ccc(Cl)cc1)N1CCC(O)(CSc2ccc(Cl)cc2Cl)CC1	inconclusive: 35.5 µM [inhibitor, partial curve]
COC(=O)c1cc(O)cc(OC)c1Oc1cc(C)cc(O)c1C(=O)O	active: 3.55 µM
COc1ccc(NS(=O)(=O)c2ccc3c(c2)oc(=O)n3C)cc1Cl	inactive
O=C(O)COc1ccc(/C=N/NC(=O)c2ccc(-c3csc(Nc4ccc(Cl)cc4)n3)cc2)cc1	active: 2.51 µM
N#Cc1ccc(C(=O)Nc2cccc(S(=O)(=O)NC3=NCCC3)c2)cc1	inactive
CCOC(=O)C(=NC1CCS(=O)(=O)C1)NNc1ccccc1Cl (stereo unspecified)	inconclusive: 0.562 µM [inhibitor, full curve, poor fit]
CC(=O)Nc1ccc(NC(=O)CSc2nnc(C)c(=O)[nH]2)cc1	inconclusive: 15.8 µM [inhibitor, full curve]
C=CCOc1ccccc1/C=c1\sc2nc(=O)c(C)nn2c1=O	active: 28.2 µM
C#Cc1ccc([C@@H]2C=C(C(=O)O)O[C@H](OCC)[C@H]2CCCO)cc1	active: 7.94 µM
CN(C)c1ccc(/C=N/NC(=S)NCc2ccccc2)cc1	inconclusive: 70.8 µM [inhibitor, partial curve]
